# Experimental data: the supplement of paper PMC8728848
# The list shows a part of the results.
# B1: SSR2 (Sclerotium rolfsii) (protein)
# chain: MVYKITVRVYQTNPDAFFHPVEKTVWKYANGGTWSITDDQHVLTMGGSGTSGTLRFHADNGESFTATFGVHNYKRWCDIVTNLAADETGMVINQQYYSQKNREEARERQLSNYQVKNAKGRNFQIVYTEAEGNDLHANLIIG
# Columns and labels:
# Assay in all cases: glycan array binding signal (z-score within array); higher = stronger binding
# Conditions in all cases: glycan notation: IUPAC condensed, linker removed
# [1] = target: Gal(b1-4)GlcNAc(b1-2)[Gal(b1-4)GlcNAc(b1-6)]Man(a1-6)[Gal(b1-4)GlcNAc(b1-2)Man(a1-3)]Man(b1-4)GlcNAc(b1-4)[Fuc(a1-6)]GlcNAc
# Outline: (§1)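 Glycan array data came from 3228 arrays in the Consortium for Functional Glycomics database, and only arrays with an available protein sequence were kept. Glycan names were put into IUPAC-condensed notation, and columns mapping to the same glycan were averaged. The binding signal is a within-array Z-score, averaged across arrays of one protein sequence run at different concentrations or buffers and across linkers. A negative Z-score can be read as non-binding.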
# [2] = target: Gal(b1-4)GlcNAc(b1-2)[Gal(b1-4)GlcNAc(b1-6)]Man(a1-6)[GlcNAc(b1-4)][Gal(b1-4)GlcNAc(b1-2)Man(a1-3)]Man(b1-4)GlcNAc(b1-4)GlcNAc
# Outline: as §1
# [3] = target: Gal(b1-4)GlcNAc(b1-2)[Gal(b1-4)GlcNAc(b1-6)]Man(a1-6)[GlcNAc(b1-4)][Gal(b1-4)GlcNAc(b1-2)[Gal(b1-4)GlcNAc(b1-4)]Man(a1-3)]Man(b1-4)GlcNAc(b1-4)[Fuc(a1-6)]GlcNAc
# Outline: as §1
# [4] = target: Gal(b1-4)GlcNAc(b1-3)Gal(b1-3)GalNAc
# Outline: as §1
# [5] = target: Gal(b1-4)GlcNAc(b1-3)Gal(b1-3)GlcNAc
# Outline: as §1
# [6] = target: Gal(b1-4)GlcNAc(b1-3)Gal(b1-4)Glc
# Outline: as §1
# [7] = target: Gal(b1-4)GlcNAc(b1-3)Gal(b1-4)GlcNAc
# Outline: as §1
# [8] = target: Gal(b1-4)GlcNAc(b1-3)Gal(b1-4)GlcNAc(b1-2)Man(a1-3)[Gal(b1-4)GlcNAc(b1-3)Gal(b1-4)GlcNAc(b1-2)Man(a1-6)]Man(b1-4)GlcNAc(b1-4)GlcNAc
# Outline: as §1
# [9] = target: Gal(b1-4)GlcNAc(b1-3)Gal(b1-4)GlcNAc(b1-2)Man(a1-3)[Gal(b1-4)GlcNAc(b1-3)Gal(b1-4)GlcNAc(b1-2)Man(a1-6)]Man(b1-4)GlcNAc(b1-4)[Fuc(a1-6)]GlcNAc
# Outline: as §1
# [10] = target: Gal(b1-4)GlcNAc(b1-3)Gal(b1-4)GlcNAc(b1-2)[Gal(b1-4)GlcNAc(b1-3)Gal(b1-4)GlcNAc(b1-6)]Man(a1-6)[Gal(b1-4)GlcNAc(b1-3)Gal(b1-4)GlcNAc(b1-2)Man(a1-3)]Man(b1-4)GlcNAc(b1-4)GlcNAc
# Outline: as §1
# [11] = target: Gal(b1-4)GlcNAc(b1-3)Gal(b1-4)GlcNAc(b1-2)[Gal(b1-4)GlcNAc(b1-3)Gal(b1-4)GlcNAc(b1-6)]Man(a1-6)[Gal(b1-4)GlcNAc(b1-3)Gal(b1-4)GlcNAc(b1-2)Man(a1-3)]Man(b1-4)GlcNAc(b1-4)[Fuc(a1-6)]GlcNAc
# Outline: as §1
# [12] = target: Gal(b1-4)GlcNAc(b1-3)Gal(b1-4)GlcNAc(b1-3)Gal(b1-4)GlcNAc
# Outline: as §1
# [13] = target: Gal(b1-4)GlcNAc(b1-3)Gal(b1-4)GlcNAc(b1-3)Gal(b1-4)GlcNAc(b1-2)Man(a1-3)[Gal(b1-4)GlcNAc(b1-3)Gal(b1-4)GlcNAc(b1-3)Gal(b1-4)GlcNAc(b1-2)Man(a1-6)]Man(b1-4)GlcNAc(b1-4)GlcNAc
# Outline: as §1
# [14] = target: Gal(b1-4)GlcNAc(b1-3)Gal(b1-4)GlcNAc(b1-3)Gal(b1-4)GlcNAc(b1-2)Man(a1-3)[Gal(b1-4)GlcNAc(b1-3)Gal(b1-4)GlcNAc(b1-3)Gal(b1-4)GlcNAc(b1-2)Man(a1-6)]Man(b1-4)GlcNAc(b1-4)[Fuc(a1-6)]GlcNAc
# Outline: as §1
# [15] = target: Gal(b1-4)GlcNAc(b1-3)Gal(b1-4)GlcNAc(b1-3)Gal(b1-4)GlcNAc(b1-2)[Gal(b1-4)GlcNAc(b1-3)Gal(b1-4)GlcNAc(b1-3)Gal(b1-4)GlcNAc(b1-6)]Man(a1-6)[Gal(b1-4)GlcNAc(b1-3)Gal(b1-4)GlcNAc(b1-3)Gal(b1-4)GlcNAc(b1-2)Man(a1-3)]Man(b1-4)GlcNAc(b1-4)[Fuc(a1-6)]GlcNAc
# Outline: as §1
# [16] = target: Gal(b1-4)GlcNAc(b1-3)Gal(b1-4)GlcNAc(b1-3)Gal(b1-4)GlcNAc(b1-3)Gal(b1-4)GlcNAc(b1-2)Man(a1-3)[Gal(b1-4)GlcNAc(b1-3)Gal(b1-4)GlcNAc(b1-3)Gal(b1-4)GlcNAc(b1-3)Gal(b1-4)GlcNAc(b1-2)Man(a1-6)]Man(b1-4)GlcNAc(b1-4)GlcNAc
# Outline: as §1
# [17] = target: Gal(b1-4)GlcNAc(b1-3)Gal(b1-4)GlcNAc(b1-3)Gal(b1-4)GlcNAc(b1-3)Gal(b1-4)GlcNAc(b1-2)Man(a1-3)[Gal(b1-4)GlcNAc(b1-3)Gal(b1-4)GlcNAc(b1-3)Gal(b1-4)GlcNAc(b1-3)Gal(b1-4)GlcNAc(b1-2)Man(a1-6)]Man(b1-4)GlcNAc(b1-4)[Fuc(a1-6)]GlcNAc
# Outline: as §1
# [18] = target: Gal(b1-4)GlcNAc(b1-3)Gal(b1-4)GlcNAc(b1-3)Gal(b1-4)GlcNAc(b1-3)Gal(b1-4)GlcNAc(b1-2)[Gal(b1-4)GlcNAc(b1-3)Gal(b1-4)GlcNAc(b1-3)Gal(b1-4)GlcNAc(b1-3)Gal(b1-4)GlcNAc(b1-6)]Man(a1-6)[Gal(b1-4)GlcNAc(b1-3)Gal(b1-4)GlcNAc(b1-3)Gal(b1-4)GlcNAc(b1-3)Gal(b1-4)GlcNAc(b1-2)Man(a1-3)]Man(b1-4)GlcNAc(b1-4)[Fuc(a1-6)]GlcNAc
# Outline: as §1
# [19] = target: Gal(b1-4)GlcNAc(b1-3)Gal(b1-4)GlcNAc(b1-3)Gal(b1-4)GlcNAc(b1-3)Gal(b1-4)GlcNAc(b1-3)Gal(b1-4)GlcNAc(b1-2)Man(a1-3)[Gal(b1-4)GlcNAc(b1-3)Gal(b1-4)GlcNAc(b1-3)Gal(b1-4)GlcNAc(b1-3)Gal(b1-4)GlcNAc(b1-3)Gal(b1-4)GlcNAc(b1-2)Man(a1-6)]Man(b1-4)GlcNAc(b1-4)GlcNAc
# Outline: as §1
# [20] = target: Gal(b1-4)GlcNAc(b1-3)Gal(b1-4)GlcNAc(b1-3)Gal(b1-4)GlcNAc(b1-3)Gal(b1-4)GlcNAc(b1-3)Gal(b1-4)GlcNAc(b1-2)Man(a1-3)[Gal(b1-4)GlcNAc(b1-3)Gal(b1-4)GlcNAc(b1-3)Gal(b1-4)GlcNAc(b1-3)Gal(b1-4)GlcNAc(b1-3)Gal(b1-4)GlcNAc(b1-2)Man(a1-6)]Man(b1-4)GlcNAc(b1-4)[Fuc(a1-6)]GlcNAc
# Outline: as §1
# [21] = target: Gal(b1-4)GlcNAc(b1-3)Gal(b1-4)GlcNAc(b1-3)Gal(b1-4)GlcNAc(b1-3)Gal(b1-4)GlcNAc(b1-3)Gal(b1-4)GlcNAc(b1-2)[Gal(b1-4)GlcNAc(b1-3)Gal(b1-4)GlcNAc(b1-3)Gal(b1-4)GlcNAc(b1-3)Gal(b1-4)GlcNAc(b1-3)Gal(b1-4)GlcNAc(b1-6)]Man(a1-6)[Gal(b1-4)GlcNAc(b1-3)Gal(b1-4)GlcNAc(b1-3)Gal(b1-4)GlcNAc(b1-3)Gal(b1-4)GlcNAc(b1-3)Gal(b1-4)GlcNAc(b1-2)Man(a1-3)]Man(b1-4)GlcNAc(b1-4)[Fuc(a1-6)]GlcNAc
# Outline: as §1
# [22] = target: Gal(b1-4)GlcNAc(b1-3)Gal(b1-4)GlcNAc(b1-3)Gal(b1-4)GlcNAc(b1-3)Gal(b1-4)GlcNAc(b1-3)Gal(b1-4)GlcNAc(b1-3)Gal(b1-4)GlcNAc(b1-2)Man(a1-3)[Gal(b1-4)GlcNAc(b1-3)Gal(b1-4)GlcNAc(b1-3)Gal(b1-4)GlcNAc(b1-3)Gal(b1-4)GlcNAc(b1-3)Gal(b1-4)GlcNAc(b1-3)Gal(b1-4)GlcNAc(b1-2)Man(a1-6)]Man(b1-4)GlcNAc(b1-4)GlcNAc
# Outline: as §1
# [23] = target: Gal(b1-4)GlcNAc(b1-3)Gal(b1-4)GlcNAc(b1-3)GalNAc
# Outline: as §1
binder,measurement,setting,value
B1,glycan array binding signal (z-score),[1],-0.279
same,glycan array binding signal (z-score),[2],-0.288
same,glycan array binding signal (z-score),[3],-0.266
same,glycan array binding signal (z-score),[4],1.74
same,glycan array binding signal (z-score),[5],-0.294
same,glycan array binding signal (z-score),[6],-0.281
same,glycan array binding signal (z-score),[7],-0.28
same,glycan array binding signal (z-score),[8],-0.197
same,glycan array binding signal (z-score),[9],-0.265
same,glycan array binding signal (z-score),[10],-0.258
same,glycan array binding signal (z-score),[11],-0.229
same,glycan array binding signal (z-score),[12],-0.275
same,glycan array binding signal (z-score),[13],-0.206
same,glycan array binding signal (z-score),[14],-0.25
same,glycan array binding signal (z-score),[15],-0.254
same,glycan array binding signal (z-score),[16],-0.285
same,glycan array binding signal (z-score),[17],-0.27
same,glycan array binding signal (z-score),[18],-0.257
same,glycan array binding signal (z-score),[19],-0.276
same,glycan array binding signal (z-score),[20],-0.261
same,glycan array binding signal (z-score),[21],-0.265
same,glycan array binding signal (z-score),[22],-0.257
same,glycan array binding signal (z-score),[23],-0.233
